# Measured values taken from the supplement of paper PMC11383711.
# The list shows a part of the results. Binding of human antibodies (heavy:light variable regions, tested as scFv in one mRNA-display pool) to influenza hemagglutinin, with or without the stem antibody CR9114 bound first. Score = (mean enrichment − median) / interquartile range of that screen; higher = more enriched, 0 = typical non-binder. Active = above the paper's cut-off per screen: stems 28; unblocked H1 Solomon Islands 5, H1 Michigan 3, H3 5, H5 19, H7 2.85, both B 5; blocked 9, 7, H5 10, H7 10, B Phuket 10, B Lee 11.5. Scores are scaled within each screen and are no affinities; replicates correlate at about 0.6 to 0.9, and antibodies rare in the pool are noisier.
# B1: 009-10-1G06 (protein)
# chain 1: EVQLVETGGGLIQPGGSLRLSCTASKFTVSINYMSWVRQTPGKGLEWVSIIYDDGSTFYADSVRGRFTISRDNSKNTIYLQMNSLRADDTAVYYCARDPGMRGYFDHWGQGTLVTVSS
# chain 2: QSVLTQPPSVSGAPGQRVAISCTGSSSNIGAGYDVHWYQQLPGTAPKLLIYDNNSRPSGVPDRFSGSKSGTSASLAITGLQAEDEADYYCQSYDSGVSGYVFGTGTKVTVL
# B2: antibody 3F01 (protein)
# chain 1: EVQLVESGGGLVLPGRSLTLSCVASGFTYDDYAMHWVRQVPGKGLEWVAGISWDSVSIGYEDSLRGRFTISRDNAKNSLYLQINSLRDEDTAFYYCAKQGEMRGYDYRLHWFFDLWGRGTLVTVSS
# chain 2: EIVLTQSPGTLSLSPGERATLSCRASQSVSSHLVWYQMKPGQAPRLLIYGASSRATGIPDRFSGSGSGTDFTLNIRRLEPEDFAVYFCQQFEDLPITFGRGTRLEIK
# B3: 01.m.01 (protein)
# chain 1: EVQLVESGGGLVQPGWSLRLSCAASGFTFDSHAMHWVRQTPGKGLEWVSGITWSSNEVGYADSVKGRFTTSRDNAKNSLYLQMNSLRLEDTALYYCTTAGGKGNWGRDDYWGQGTLVTVSS
# chain 2: DIHMTQSPSSLSASVGDRVTITCRASQGIRSYLAWYQQKPGKAPKLLIYAASTLQSGVPSRFSGSGSGTDFTLTISSLQPEDFATYYCQQVDDYPYLFAQGTKLEIK
# B4: W85-1C02 (protein)
# chain 1: EVQVVESGGGLVQPGGSLRLSCAASGFTVSGNYMHWVRQAPGKGLEWVSVLYAGGRTYYADSVKGRFTISRDNSKNMLYLQMNSLSVEDTAVYYCAGLSLEWLDVWGQGTTVAVSS
# chain 2: DIQMTQSPSSLSASVGDRVTITCRAGQNIASYLNWYQHRPGKAPRLLIFAASSLQTGVPSRFSGSGSGSDFTLTISSLQPEDFATYYCQQTYSFFLTFGGGTKVEVK
# B5: 039-10-4D04 (protein)
# chain 1: QVQLVESGGGVVQPGTSLRLSCVVSGFPFRSYSIHWVRQAPGKGLEWVAVISYDGDNKYYADSVKGRFTISRDNSKKTAYLQMNSLRVDDTAIYFCARDPVEYSSVSYYFLYGMDVWGQGTTVTVSS
# chain 2: QSVLTQPPSVSGAPGQRVTISCTGSSSNIGAGYDVHWYQQLPGTAPKLLIYGNINRPSGVPDRFSGSKSGTSASLAISGLQAEDEGDYYCQSYDNSLLLSVVFGSGTRLTVL
# B6: K77-2A03 (protein)
# chain 1: LVQLQESGPGLVKPSETLSLTCTVSGGSISSSTYYWGWIRQPPGKGLEWIGSIYYTGDTYYNPSLKSRVTISVDSSKNQFSLKLSSLTAADTAVYYCARERAWLRGPFDFWGRGTLVTVSS
# chain 2: DIVMTQSPDSLAVSLGERATINCKSSQSILFSSYNKNHLAWYQQKPGQPPKLLIYWASTRESGVPDRFSGSGSGTDFTLTISSLQAEDVAVYFCQQYYSPPSFTFGQGTKLEIK
# B7: C6-2-C01 (protein)
# chain 1: VQLVESGGGLVKPGASLRLSCVGSGFIFSNAWMNWVRQAPGKGLEWVGRMKIYTDGGTTDYAAPVKGRFTISRDDSKNTLYLQMSSLKTEDTAMYYCVTDFSGRRPYWGQGTLVTVSS
# chain 2: DIQMTQSPSTLSASVGDRVTITCRASQRISNWLAWYQQKPGKAPKLLIYEASTLESGVPSRFSGSGSGTEFTLTINSLQPDDFATYYCQLYNDYSGFTFGPGTKVDIK
# B8: C6-2-D02 (protein)
# chain 1: VQLVESGGGLVQPGGSLRLSCAASGFTFNTHLMYWVRQAPGKGLEWVSLISPAGRNKFYADSVRARFTISRVNSRNTLYLQIDTVRPEDTAVYYCATRSVGATGYLSWGPKDYSYNDVDVWGQGTTVTVSS
# chain 2: DIQMTQSPSSLSASVGDTVTIACRASQGIRSDLGWYQQQAGKAPRRLIYGASSLQSGVPSRFSGSGSGTEFTLTISSLQPEDFATYYCLQHNSYPWTFGQGTKVEIK
# B9: antibody 6F06 (protein)
# chain 1: VQLVESGGGLVQPGRSLRLSCAASGFTFDDYAMHWVRQAPGKGLEWVSTISWGSAGVGYADSVKGRFTISRDNANSALYLQMSSLRPEDTALYYCAKDRGYSTSQDYYYYFGMDVWGQGTTVTVSS
# chain 2: DIQMTQSPSSLSASVGDRVTITCQASQDINKYLIWYQQRPEKAPKLLIYDASNLETGVPSRFSGSGSGTDFTFTISNLQPEDIATYYCQQYESFPLTFGGGTKVEIK
# B10: K77-1F11 (protein)
# chain 1: QVQLVQSAAEVKKPGASVKVSCKASGYSFTSYQVHWVRQAPGQGLEWMGMIIPTPGSINYAQKFQGRVTMTRDTSTNTVYMEVSGLRSDDTAVYYCARRGSYISGHYTYYGMDVWGQGTTVTVSS
# chain 2: EIVLTQSPGTLSLSPGERATLSCRASQSVSNSYLAWYQQRPGQAPRLLFYGASSRATGIPDRFSGYGSGTDFTLTISRLEPEDFAVYYCHHYGGSAGTFGQGTKVEIK
# B11: antibody 4B04 (protein)
# chain 1: VQLVESGGGVVQPGRSLRLSCAVSGFTFISYDMHWVRQAPGKGPEWMAYISYDGNRQYYADSVKGRFTISRDNSKNTLHLQMNSLKPEDTAVYSCAREFVPPGPDDYYFGLDVWGQGTTVTVSS
# chain 2: EIVLTQSPATLSLSPGDRATLSCRASQSVGSYLAWYQQKPGQAPRLLIYDASKRATDIPARFSGSGSGTDFTLTISSLEPADFAIYYCQLRSDWPPGFTFGRGTKVEIK
# B12: K77-1G08 (protein)
# chain 1: LVQPQESGPGLVKPSETLSLTCTVSNGSISSGNFYWGWIRQPPGKGLEWLGAIYYTGITYYSPSLKRRLTISVDTSMNQFSLRLNSVTAADTAVYYCARDLAPYYYGSGTFYNIFDHWGQGTLITVSS
# chain 2: QSALTQPPSVSAAPGQRVTISCSGSRSNIGNYYVSWYQQFPGTAPKLLIYDNDKRPSGIPDRFSGSKSGTSATLGITGLQTGDEADYYCGTWDSSLSAHVIFGGGTKLTVL
# Tests used:
# Assay in all cases: mRNA display binding score; higher = more enriched on the antigen
# [1] = target: Influenza A H1N1 A/Michigan/45/2015 hemagglutinin ectodomain
# Method: (§1)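 A pool of natively paired antibodies, displayed as scFv on mRNA, was selected once on antigen-coated beads and sequenced before and after; two replicates.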
# [2] = target: Influenza A H1N1 A/Solomon Islands/3/2006 hemagglutinin ectodomain
# Method: as §1
# [3] = target: Influenza A H3N2 A/Singapore/INFIMH-16-0019/2016 hemagglutinin ectodomain; settings: antigen blocked with: nothing
# Method: as §1
# [4] = target: Influenza A H5N1 A/Qinghai/1A/2005 hemagglutinin ectodomain
# Method: as §1
# [5] = target: Influenza A H7N9 A/Shanghai/2/2013 hemagglutinin ectodomain
# Method: as §1
# [6] = target: Influenza B/Lee/1940 hemagglutinin ectodomain
# Method: as §1
# [7] = target: Influenza B/Phuket/3073/2013 hemagglutinin ectodomain
# Method: as §1
# [8] = antigen blocked with: 2 µM CR9114 IgG
Binder,"mRNA display binding score [1, 8]",mRNA display binding score ([1]; antigen blocked with: nothing),"mRNA display binding score [2, 8]",mRNA display binding score ([2]; antigen blocked with: nothing),mRNA display binding score [3],"mRNA display binding score [4, 8]",mRNA display binding score ([4]; antigen blocked with: nothing),"mRNA display binding score [5, 8]",mRNA display binding score ([5]; antigen blocked with: nothing),"mRNA display binding score [6, 8]",mRNA display binding score ([6]; antigen blocked with: nothing),"mRNA display binding score [7, 8]",mRNA display binding score ([7]; antigen blocked with: nothing)
B1,active: 152,active: 12.3,active: 33.3,active: 31.9,inactive: -0.234,inactive: 2.42,inactive: 1.34,inactive: 1.04,inactive: 0.242,inactive: 0.118,inactive: 0.585,inactive: 0.196,inactive: 0.384
B2,inactive: 1.67,inactive: 1.25,inactive: 1.17,inactive: 1.4,inactive: 2.16,inactive: 2.38,inactive: 1.18,inactive: 1.54,inactive: 1.93,inactive: 9.74,active: 13.6,inactive: 1.32,inactive: 0.13
B3,inactive: -0.0314,inactive: 0.424,inactive: 0.00589,inactive: -0.0466,inactive: 0.188,inactive: 0.0776,inactive: -0.278,inactive: 0.022,inactive: 0.411,inactive: -0.154,inactive: -0.384,inactive: 0.0928,inactive: -0.251
B4,inactive: -0.298,inactive: -0.147,inactive: 0.765,inactive: -0.592,inactive: -0.082,inactive: 0.138,inactive: -0.51,inactive: 0.177,inactive: 0.0282,inactive: 1.63,inactive: 2.44,inactive: -0.287,inactive: -0.4
B5,inactive: 0.162,inactive: 0.202,inactive: 0.294,inactive: 0.243,inactive: 0.625,inactive: 0.164,inactive: 0.204,inactive: -0.14,inactive: 0.516,inactive: -0.567,inactive: -0.179,inactive: 0.159,inactive: -0.136
B6,inactive: 1.16,inactive: 1.95,inactive: 1.92,inactive: 1.09,inactive: 1.42,inactive: 0.381,inactive: 0.668,inactive: 0.767,inactive: 2.19,inactive: 0.611,inactive: 0.155,inactive: 0.643,inactive: 0.248
B7,inactive: 0.311,inactive: -0.0639,active: 84.3,active: 75.4,inactive: 0.395,inactive: 0.0619,inactive: -0.145,inactive: 0.045,inactive: -0.153,inactive: -1.01,inactive: -0.0164,inactive: -0.256,inactive: -0.019
B8,inactive: 0.292,inactive: 1.3,inactive: -0.00443,inactive: 0.37,inactive: 0.855,inactive: 0.558,inactive: 0.519,inactive: 0.231,inactive: 1.47,inactive: -0.307,inactive: 0.0637,inactive: 0.276,inactive: 0.237
B9,inactive: 0.131,inactive: -0.453,inactive: 0.0658,inactive: -0.087,inactive: -0.23,inactive: -0.314,inactive: -0.204,inactive: 0.0873,inactive: -0.0172,inactive: 0.805,inactive: 0.649,inactive: -0.0968,inactive: 0.101
B10,inactive: 0.825,inactive: 1.11,inactive: 0.475,inactive: 0.652,inactive: 1.09,inactive: 0.428,inactive: 0.294,inactive: 1.59,inactive: 1.53,inactive: 0.3,inactive: 0.194,inactive: 0.351,inactive: 0.242
B11,inactive: 0.719,inactive: 0.0239,inactive: 1.16,inactive: 0.772,inactive: -0.0884,inactive: -0.0842,inactive: 0.14,inactive: -0.746,inactive: -0.226,active: 16.1,active: 64.8,inactive: -0.236,inactive: -0.0669
B12,inactive: -0.583,inactive: -0.332,inactive: -0.508,inactive: -0.197,inactive: -0.333,inactive: -0.494,inactive: -0.542,inactive: -0.365,inactive: -0.379,inactive: 0.305,inactive: 2.67,inactive: 1.23,inactive: -0.0293
